Test results published in publication PMC10668032.
The other results are listed elsewhere or left out. At the low end of the ranking, values are background and their order means little.

The sequences below were run against SIX1-Q177R homeodomain (UniProt Q15475) (assay: universal protein binding microarray). Conditions: Universal all-10-mer PBM (8x60K, AMADID 030236), 300 nM GST-tagged protein, Alexa Fluor 488 anti-GST; buffer, salt, pH and temperature not stated; high values mean tight binding; most listed sequences are background and not binding sites; double strand, one strand shown.

Sequence | binding signal
ACTGTTGA | -0.19 E-score
GAGTGAAA | -0.0792 E-score
CCGCCGCA | -0.0509 E-score
CCCTTTTC | -0.0656 E-score
AGCTCAAA | -0.169 E-score
ACCTGGCA | 0.02 E-score
ATTACGCC | 0.0329 E-score
TAGCGAAA | -0.316 E-score
CTGAGGTC | -0.268 E-score
CTGTACAA | -0.0788 E-score
ATGCCGCC | -0.0731 E-score
CGATCTCA | -0.065 E-score
GTAGCCAA | -0.175 E-score
TGCCCGAA | -0.0653 E-score
ATGTACCC | 0.19 E-score
AATAACCT | -0.0418 E-score
CTTGCATA | -0.275 E-score
GGCGGTTA | -0.0932 E-score
AGACGCCA | -0.0255 E-score
CATACGGG | 0.058 E-score
TGAATTCA | 0.0157 E-score
CATCATAA | -0.0873 E-score
CAAGATTC | -0.135 E-score
AAAATATC | -0.224 E-score

Sequence | binding signal
AATCAAAT | -0.0847 E-score
CATGTCAA | -0.395 E-score
AACGGACA | 0.278 E-score
CTACCCGA | 0.0678 E-score
CGGCTCCC | 0.0548 E-score
AACCCGTT | -0.101 E-score
TCCATGCA | -0.0817 E-score
GCGAGATA | -0.0482 E-score
GTAACGAC | 0.0529 E-score
AACCGATT | -0.122 E-score
CAGGGCGA | 0.0893 E-score
CGTGACTA | -0.00741 E-score
AATCACCC | 0.047 E-score
ATTCGGTC | -0.234 E-score
GACAACAC | 0.386 E-score
CATTCTAC | -0.0103 E-score
CGACCAAA | 0.00806 E-score
AACATTCA | -0.105 E-score
CGACGTGC | -0.125 E-score
CCGAATAC | 0.163 E-score
AGTGTAAC | 0.419 E-score
ATATGAAC | 0.0437 E-score
CCGGTTTA | -0.0139 E-score
ACTGGTAT | 0.269 E-score

Sequence | binding signal
GGCGGCTA | -0.0763 E-score
GCTTAAGC | 0.0359 E-score
GTGAACTA | -0.0722 E-score
GCACCCGA | 0.235 E-score
CACTTTTC | 0.0265 E-score
GTGGGCTA | -0.015 E-score
CCATGAGC | -0.118 E-score
CTGGGCCA | -0.156 E-score
ATAAGCTC | -0.0301 E-score
CTATTGTA | -0.0301 E-score
AGAATGAT | -0.171 E-score
AAGACATG | -0.0594 E-score
GAACGCCC | -0.018 E-score
GTTACCGA | -0.0906 E-score
CAGAGTAG | 0.141 E-score
ACACTTGC | 0.363 E-score
CTCATTGA | -0.136 E-score
CACTAATG | 0.164 E-score
CAGCTGGA | -0.093 E-score
ATTATAGA | -0.133 E-score
AGGCTTTA | -0.211 E-score
AATCTTGG | -0.133 E-score
AGGGCTAC | 0.0065 E-score
GGTTGTCA | 0.0679 E-score

Sequence | binding signal
CCGAAACG | -0.0683 E-score
ATCTCAAA | -0.127 E-score
ACTCTGTA | 0.0722 E-score
ATCTAGGA | -0.189 E-score
TTCCTCAA | -0.183 E-score
GGGTGGGA | 0.103 E-score
CAGTAATA | -0.178 E-score
ACAAGTGA | 0.0375 E-score
AAATTGGG | -0.0601 E-score
GAATAATC | -0.151 E-score
AAAGCTTT | -0.196 E-score
TGGCCCAA | -0.263 E-score
AGACAATA | -0.213 E-score
GTTACCAA | -0.106 E-score
AGCGCACC | 0.0579 E-score
GTTCGTGA | 0.0181 E-score
ACAAGGGA | 0.118 E-score
CGACGAAC | -0.000705 E-score
CAAACTGG | -0.0176 E-score
GAAATTGC | -0.187 E-score
ATATTAGG | -0.00895 E-score
AGCGTTGG | 0.0632 E-score
